Laboratory results taken from PubChem BioAssay AID1240 (Sanford-Burnham Center for Chemical Genomics, 2008).
Among all 50,000 compounds or so, about 800 (1.6%) showed an effect of 50% or more. Some of the results follow.

Biological target: Bcl-2-like protein 10 (Homo sapiens) (UniProt Q9HD36)
Experiment: TR3 peptide-Bcl-B binding displacers, biochemical primary FP assay, phenotype converters (AID 1240);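 further: 0% = Bcl-B with tracer peptide and DMSO and 100% = tracer peptide lacking Bcl-B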
Conditions: GST-Bcl-B / FITC-TR3 peptide fluorescence polarization; stronger effect = higher value; compound at 3.75 mg/L

UniProt Q9HD36, sequence (Q9HD36 whole entry, looked up): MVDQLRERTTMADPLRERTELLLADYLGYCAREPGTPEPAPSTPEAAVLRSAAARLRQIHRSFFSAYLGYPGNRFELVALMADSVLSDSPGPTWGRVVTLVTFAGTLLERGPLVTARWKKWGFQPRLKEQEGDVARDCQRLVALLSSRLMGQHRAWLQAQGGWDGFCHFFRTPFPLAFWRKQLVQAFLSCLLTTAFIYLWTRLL

Row | Structure (SMILES) | displacement
1 | CCOC(=O)C1=C(C)N=c2s/c(=C\c3ccc(OC)c(O)c3)c(=O)n2C1c1cccc(OC)c1 (stereo not given) | 1.7%
2 | O=C(NCc1ccc2c(c1)OCO2)C(O)(c1ccccc1)c1ccccc1 | -3.6%
3 | O=C(O)c1cccc(C(=O)c2ccc3c(c2)C(=O)N(c2cccnc2)C3=O)c1 | -10.2%
4 | CCOC(=O)c1c(NC(=O)/C=C/C(=O)O)sc2c1CCC(C(C)(C)C)C2 (stereo not given) | 9.1%
5 | COc1ccc(OC)c(CNc2cccc(C)c2)c1 | 9.5%
6 | CS(=O)(=O)N(Cc1ccc(C(=O)NCC2CCCO2)cc1)c1ccccc1 (stereo not given) | 13.8%
7 | Cc1c(Cl)cccc1NC(=O)C(=O)NNS(=O)(=O)c1ccc(F)cc1 | -10.7%
8 | O=C(Cc1nc2ccccc2[nH]1)NCc1ccccc1 | -10.8%
9 | CCOc1ccc(-c2c(C)sc(N)c2C(=O)OC)cc1 | -5.1%
10 | CC(CC(=O)O)C(=O)c1ccc(Cl)c([N+](=O)[O-])c1 (stereo not given) | -10.1%
11 | COCCOC(=O)C1=C(C)NC(C)=C(C(=O)OCCOC)C1c1ccc(-c2cccc(Cl)c2Cl)o1 | 13.7%
12 | Cc1nc(-c2ccccc2)nc(N/N=C/c2ccccc2[N+](=O)[O-])c1C | -10.3%
13 | Cc1cc(/C=c2\sc3nc4ccccc4n3c2=O)c(C)n1-c1cccc([N+](=O)[O-])c1 | -10.2%
14 | COc1ccc(-n2c(O)cnc2Nc2nc(C)cc(C)n2)cc1OC | 5.7%
15 | Cc1ccc2nc(C)c3c(c2c1)OC(C)C3 (stereo not given) | -16.4%
16 | O=[N+]([O-])c1ccc(Cl)cc1NCc1ccccc1 | 4.9%
17 | Cc1ccccc1OCC(=O)Nc1ccc(F)cc1F | -1.5%
18 | O=c1[nH]cnc2nc(N3CCCCC3)[nH]c12 | 8.6%
19 | CN1C(=O)/C(=C2\SC(=S)N(Cc3ccco3)C2=O)c2ccccc21 | 9.8%
20 | Clc1ccc(CNc2nc3ccccc3n2CCOc2ccccc2)cc1 | -6%
21 | C=CCN1C(=O)/C(=C\c2cc(C)n(-c3ccc(C)cc3)c2C)C(=O)NC1=S | -6.4%
22 | COc1ccc(N(CC(=O)NCc2ccc(C)cc2)S(C)(=O)=O)cc1 | -3%
23 | O=c1[nH]c2ccc(NS(=O)(=O)c3ccc(F)cc3)cc2[nH]1 | 6.1%
24 | COCCCNC(=O)c1ccccc1[N+](=O)[O-] | 3.3%

Row | Structure (SMILES) | displacement
25 | Cc1nn(CC(=O)NCCN2CCOCC2)c(C)c1[N+](=O)[O-] | 4.9%
26 | NC(=O)NC(c1ccccc1)c1ccccc1I (stereo not given) | -2.2%
27 | Cc1cc(C)n(-c2nc(NC(C)(C)C)nc(NC(C)(C)C)n2)n1 | 10.5%
28 | CCOC(=O)c1c(NC(=O)C2CCCCC2)sc2c1CCC2 | 7%
29 | O=C(COc1ccc(Br)cc1)NC12CC3CC(CC(C3)C1)C2 | -5.7%
30 | COc1ccc(OCC(=O)N/N=C/c2ccc(OC)c(Br)c2)cc1 | 2.8%
31 | Cc1c(Cl)c(=O)oc2cc(OCc3ccc(Cl)cc3)ccc12 | 11.4%
32 | COc1ccccc1CN1CCN(C2CCCCC2)CC1 | -14.3%
33 | O=C(CCN1C(=O)/C(=C\c2cccs2)SC1=S)Nc1nccs1 | 120%
34 | CCOc1ccc2nc(SCc3ccc(OC)c(F)c3)sc2c1 | -4.7%
35 | CCOC(=O)c1sc(NC(=O)C(CC)c2ccccc2)c(C(N)=O)c1C (stereo not given) | -9.2%
36 | O=C(c1ccncc1)N1N=C(c2ccncc2)CC1(O)C(F)(F)F (stereo not given) | -15.2%
37 | CCOC(=O)c1c(NC(=O)Cc2cccs2)sc(C(=O)Nc2cc(C(F)(F)F)ccc2Cl)c1C | 7.3%
38 | CCOC(=O)c1cnn2c(C(F)(F)F)c3c(nc12)-c1ccccc1CC3 | -3.3%
39 | N#C/C(=C/c1ccc(Cl)cc1)C(=O)Nc1ccc(O)cc1 | 7.1%
40 | Cc1ccc2c(Cl)c(C(=O)Nc3ccc(Br)cc3F)sc2c1 | -21.3%
41 | CC(C)(C)NCC(O)COc1ccc(Cl)cc1 (stereo not given) | 4.8%
42 | CC1=CC(C)C2COC(c3ccccc3O)C1C2 (stereo not given) | -14.6%
43 | CCOC(=O)c1ccc(N2NC(=O)/C(=C/c3ccc(O)cc3)C2=O)cc1 | 11.1%
44 | CCN1C(=O)c2cccc3c(NC(=O)c4cc([N+](=O)[O-])ccc4Cl)ccc1c23 | -1.9%
45 | CCNC(=NCCc1ccc(OC)c(OC)c1)SC1CC(=O)N(c2ccccc2F)C1=O (stereo not given) | 0.1%
46 | COc1cccc(/C=C2\SC(=S)N(CC(=O)NNC(=O)c3ccccc3OC)C2=O)c1 | 9.3%
47 | O=C(O/N=C(/c1ccc(Br)cc1)N1CCOCC1)c1ccccc1 | 10.1%
48 | O=C(COC(=O)c1cccc([N+](=O)[O-])c1)c1ccc(Br)cc1 | -4.2%

Row | Structure (SMILES) | displacement
49 | COc1ccc(/C=N\NC(=O)CNc2ccc(C)cc2)cc1Br | 19%
50 | CC1=C(C(=O)OC2CCC(C)CC2)C(c2ccccc2)NC(=O)N1 (stereo not given) | -6%
51 | COc1cc2c(cc1OC)C(CN1C(=O)c3ccccc3C1=O)=NC(C)(C)C2 | 3%
52 | O=C(Nc1cccc(Cl)c1Cl)c1ccccc1[N+](=O)[O-] | -4.8%
53 | CCc1ccc(OCC(=O)Nc2cc3nn(-c4ccc(OC)cc4)nc3cc2C)cc1 | 5%
54 | COc1cc(C2Nc3ccccc3C(=O)N2Cc2ccccc2)cc(OC)c1OC (stereo not given) | 13.4%
55 | COc1cc(/C=C2/C(C)=C(C#N)c3nc(N)c(C#N)c(C)c32)c([N+](=O)[O-])cc1OC | 11.9%
56 | CC(C)C(=O)NS(=O)(=O)c1ccc(NC(=O)c2ccc(Cl)cc2)cc1 | 8.6%
57 | Cc1ccc(NCC(=O)N/N=C\c2cc(Br)ccc2O)cc1 | 5.9%
58 | CCOc1ccccc1OCCCCNC(C)(C)C | -11.4%
59 | Cc1nn(-c2ccccc2)c(C)c1-c1cccc([N+](=O)[O-])c1 | 11.6%
60 | CN(C)CCCNC1CCCCCCCCCCC1 | 7.8%
61 | Cc1cccc(C)c1NC(=S)NC(=O)c1ccco1 | 14.1%
62 | O=C1NC(=Nc2cccnc2)S/C1=C/C=C/c1ccccc1 | 15.6%
63 | CC(=O)Nc1ccc2nc(-c3ccc4nc(NC(C)=O)sc4c3)[nH]c2c1 | 33%
64 | CCOC(=O)C1CCN(S(=O)(=O)c2cccc3cccnc23)CC1 | -16%
65 | CC(/C=N/NC(=O)c1cc(-c2ccccc2)n[nH]1)=C\c1ccccc1 | -3.8%
66 | COc1ccc(C(=O)N2N=C3CC(C)(C)OCC3C2c2ccc(OC)cc2)cc1 (stereo not given) | 1.7%
67 | O=[N+]([O-])c1ccc(N2CCN(S(=O)(=O)c3ccccc3)CC2)c(F)c1 | 6.5%
68 | Cc1[nH]c2ccccc2c1SCC(=O)O | 7.4%
69 | COc1cccc(/C=N/Nc2nc3nonc3nc2Nc2cccc(C)c2C)c1O | 22.3%
70 | CCOc1cc(/C=C2/C(=O)NN(c3ccc(I)cc3)C2=O)ccc1O | 24.7%
